PubChem BioAssay AID1645882 (National Center for Advancing Translational Sciences (NCATS), 2021)
In all, about 16,000 compounds went through this assay and about 120 (0.75%) were called active. About 4% were inconclusive and are not listed. Calls follow the shape of the dose curve; as a rule, active = well fitted inhibition curve with a large enough effect; inconclusive = small, poorly fitted or top-dose-only effect; inactive = no such curve, though single readings can be large or run the other way. Some of the results follow.

Each compound was assayed against Rap guanine nucleotide exchange factor 3 (Homo sapiens) (UniProt O95398) (assay: Validation qHTS for antagonist of cAMP-regulated guanine nucleotide exchange factor 3 (EPAC1)). Details: EPAC1 Rap1B-BODIPY-GDP exchange, fluorescence; series mostly up to 150 µM; activity change, negative = inhibition: at the top concentration.
Chain of UniProt O95398 (O95398 whole entry, looked up): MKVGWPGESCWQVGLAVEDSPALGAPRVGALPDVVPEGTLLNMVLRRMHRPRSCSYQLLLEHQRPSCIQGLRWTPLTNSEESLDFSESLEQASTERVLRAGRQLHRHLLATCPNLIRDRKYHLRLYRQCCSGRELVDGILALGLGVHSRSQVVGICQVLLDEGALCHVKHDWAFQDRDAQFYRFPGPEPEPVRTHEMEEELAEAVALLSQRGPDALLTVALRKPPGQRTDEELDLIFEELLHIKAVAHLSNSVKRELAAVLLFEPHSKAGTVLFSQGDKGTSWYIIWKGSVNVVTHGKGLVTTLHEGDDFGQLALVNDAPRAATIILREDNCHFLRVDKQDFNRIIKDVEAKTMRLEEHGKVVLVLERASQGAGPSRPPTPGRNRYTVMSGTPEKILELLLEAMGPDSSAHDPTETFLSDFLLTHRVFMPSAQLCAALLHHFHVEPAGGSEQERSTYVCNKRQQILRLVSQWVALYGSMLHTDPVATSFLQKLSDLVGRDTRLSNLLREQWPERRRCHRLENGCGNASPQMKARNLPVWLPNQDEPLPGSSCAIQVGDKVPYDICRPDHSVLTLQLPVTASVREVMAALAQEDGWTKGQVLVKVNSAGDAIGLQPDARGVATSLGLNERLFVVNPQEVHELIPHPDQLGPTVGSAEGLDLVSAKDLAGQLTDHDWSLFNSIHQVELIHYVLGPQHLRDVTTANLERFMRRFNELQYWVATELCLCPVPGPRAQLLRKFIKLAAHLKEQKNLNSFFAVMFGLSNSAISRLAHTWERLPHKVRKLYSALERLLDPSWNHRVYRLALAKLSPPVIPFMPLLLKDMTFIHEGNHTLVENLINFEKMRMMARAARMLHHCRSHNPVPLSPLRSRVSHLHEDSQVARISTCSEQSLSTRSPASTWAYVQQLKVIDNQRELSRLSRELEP
How it was run: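 EPAC1 (100 nM) mixed with 250 nM RAP1B-BODIPY-GDP and 50 uM GDP; compounds in concentration series, 5 min at room temperature. Fluorescence (ex 480/em 540 nm) read every 5 min for 30 min; normalized to ATA control and DMSO.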
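Also: plate controls were DMSO for no effect and ATA control for full effect; nearly all actives have a fitted effect of over 75% in size.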

Activity change, negative = inhibition, inactive:
[Cl][In]([Cl])[Cl]
C#CCN(C1CCCC1)S(=O)(=O)C=C -17.4%
COC(=O)c1cc(-c2c(-c3cc(OC)c(OC)c(OC)c3)noc2C)cc([N+](=O)[O-])c1 -3.29%
COC(=O)N1CCC2(CCCN(C(c3ccccc3)c3ccccc3)C2)CC1 10.7%
COc1ccc(CCNC(=O)c2cnn(-c3nccc(-c4cccs4)n3)c2C)cc1OC 19.8%
CC(=O)NCCNc1ncnc2ccc(-c3ccc4c(c3)OCO4)cc12 3.14%
COc1cc(=O)n2c(c1C(=O)N(C)C(C)c1ccco1)CCN(C(=O)c1ccc(C(C)=O)cc1)CC2 (configuration not stated) -4.72%
COc1ccc2c(c1)OC(C)CN(CCNC(=O)c1cccc(N3CCNC3=O)c1)C2 (configuration not stated) -0.256%
O=C(NCCc1nnc2n1CCN(Cc1ccccn1)CC2)c1ccc(F)cc1 2.66%
CCS(=O)(=O)Nc1cc(C(=O)N2CCCN(C=O)CC2)c2c(c1)nc(-c1ccccc1)n2C 6.38%
COc1ccc(CNC(=O)[C@@H]2CC=C[C@@H]3CCN(C4CCCCC4)C(=O)[C@@H]32)cc1 -9.12%
COC(=O)C1OC(=O)C2OC23[C@]2(C)C(OC(C)=O)CC4C(C)(C)C(=O)CC[C@]4(C)C2CC[C@@]13C (some centres not stated) 12.8%
COC1=CC(=O)C=C(OC)C1=O 17%
CC(C)N1[N]C(=C2C=c3cc(O)ccc3=N2)c2c(N)ncnc21 15.2%
CCc1ccc(C(=O)C(C)CN2CCCCC2)cc1 (configuration not stated) 7.78%
Cc1ccc(CN2CCc3nnc(C(C)NC(=O)c4cc(F)ccc4F)n3CC2)o1 (configuration not stated) -6.42%
CC(=O)Nc1ccc(SCCN2CC[C@@H](C(C)(C)C)CCC2=O)cc1 -6.44%
CCC1C(=O)NCCN1Cc1ccc2c(c1)CN(Cc1cccc(OC)c1)CCO2 (configuration not stated) 11.6%
COc1cc(CN2CCOc3ccc(CN4CCN(CCO)CC4)cc3C2)ccc1F 11.6%
OCc1ccccn1 14.3%
CN(C(=O)c1c(O)c2ccccc2n(C)c1=O)c1ccccc1 11.5%
COc1cc(-c2cc(C)c3c(OC)ccc(OC)c3n2)cc2c1OCCN(Cc1cn(C)nc1C)C2 2.69%
O=C(C[n+]1ccnc2ccccc21)c1ccc(Cl)cc1 11.7%
COc1ccnc(CS(=O)c2nc3ccc(OC(F)F)cc3[nH]2)c1OC (configuration not stated) -11.3%
CC[C@@H]1[C@H]2CCCC(=O)N3CC[C@@H](C[C@H]1O)[C@@H]23 15.5%
O=C(NCCN1Cc2ccccc2OC(c2ccccc2F)C1)c1ccco1 (configuration not stated) 2.09%
COc1cc2c(cc1OC)C(/C=C/c1ccc(OC)c(OC)c1OC)=NCC2 11%
O=C(c1cnccn1)N1CCC2(CC1)CCN(c1cccc(-c3ccccc3)c1)CC2 -2.64%
COc1ccc(O)c(C(=O)N2CCC3(CC2)c2ccccc2[C@@H](NC(=O)c2ccccn2)[C@@H]3OC)c1 8.16%
COc1ccc(CNc2ncncc2-c2ccc(N(C)C)cc2)c(OC)c1 -7.84%
N#CCCn1c(=O)c(CCc2ccccc2)nc2cnc(N3CCOCC3)nc21 8.09%
Nc1nc2[nH]cc(CCc3ccc(C(=O)N[C@@H](CCC(=O)O)C(=O)O)cc3)c2c(=O)[nH]1 18.4%
O=C(c1cnn2cccnc12)N1CCOc2ccc(C(O)C(c3ccccc3)c3ccccc3)cc2C1 (configuration not stated) 13.5%
CCCCCCCCCCCCCCCCOCC(COP(=O)([O-])OCC[N+](C)(C)C)OC (configuration not stated) 18% [at 15.3 µM]
O=C(c1cccc(F)c1)N1CCC2(CCCN(c3ncccn3)C2)CC1 7.34%
COc1ccccc1CN1CCC2(CC1)CCN(C(=O)c1csnn1)CC2 1.24%
COc1ccc(OC)c(CN2CCCC(c3nc(-c4ccncc4)ncc3-c3ccccc3C)C2)c1 (configuration not stated) 12.9%
O=C(c1csnn1)N1CCC2(CC1)CN(c1ccccn1)C2 18.4%
COCCc1ccc(OCC(O)CNC(C)C)cc1 (configuration not stated)
CC(C)(C)NCC(O)COc1cccc2c1C[C@H](O)[C@H](O)C2 (some centres not stated) 6.16% [at 75.8 µM]
COc1ccc(NC(=O)N2CC3(CCN(S(=O)(=O)c4ccccc4)CC3)C2)cc1 20.3%
Nc1nc(=O)n(C2OC(CO)C(O)C2O)cc1Cl (configuration not stated) 18.8%
CCCCC[C@H](O)C=C[C@H]1[C@H](O)CC(=O)[C@H]1CCCCCCC(=O)O 9.61%
COc1ccc(C(=O)c2ccccc2O)c(O)c1
N#Cc1cccc(-c2cc(NCc3cccs3)ncn2)c1 20%
O=C(Cn1cncn1)NCC1Cc2cc(-c3ccsc3)cc(Cl)c2O1 (configuration not stated) 6.69%
CC(C)(C)NC[C@H](O)COc1ccccc1C1CCCC1 -2.7% [at 75.8 µM]
COC(=O)C[C@H]1c2cc(C(F)(F)F)ccc2S(=O)(=O)N1C(C)C -13.7%
Cc1nc2cc(NC(=O)[C@@H]3C[C@@H](Sc4ccccn4)CN3Cc3ccccc3F)ccc2s1 8.09%
COc1cc(-c2cccc(Cl)c2)cc2c1OCCN(C(=O)CCn1ccc(C)n1)C2 9.53%
CC(=O)OC1CCC2(C)C3CC(=O)C4(C)C(CC5OC6(CCC(C)CO6)C(C)C54)C3CC[C@H]2C1 (some centres not stated) -7.46%
COc1ccccc1OCC1CNC(=O)O1 (configuration not stated) 32.5%
COC(=O)C1CCCCN1Cc1ccc2c(c1)CN(C(=O)c1csc(-c3cccs3)n1)CCO2 (configuration not stated) 23%
O=S(=O)(O)c1cc(I)c(O)c2ncccc12 15.7%
c1cc2c3c(c1)c1c(n3CCNC2)CCCC1 -9.26%
O=C(NC(c1cccnc1)C(F)(F)F)c1cnn(-c2nccc(-c3cccs3)n2)c1C1CC1 (configuration not stated) -1.26%
Cc1nc(C(C)NC2CCN(c3cccc(NC(=O)c4ccncc4)c3)CC2)cs1 (configuration not stated) -4.98%
O=C1[C@H](CC[C@H](O)c2ccc(F)cc2)[C@@H](c2ccc(O)cc2)N1c1ccc(F)cc1 0.204%
COc1ccccc1CN1CCC(n2cc(C(=O)N3CCCCC3)nn2)CC1 17.5%
COc1ccc(OC)c(-c2ccnc(-n3ncc(C(=O)NC(C)(C)CO)c3C3CC3)n2)c1 11.9%
CC(C)c1cc(C(=O)N2CCOc3ccc(CN4CCC(Oc5cccnc5)CC4)cc3C2)n[nH]1 23%
CC(C)NCC1CCc2cc(CO)c([N+](=O)[O-])cc2N1 (configuration not stated) 13.4% [at 75.8 µM]
COCCn1c(=O)c(-c2cccc(C#N)c2)nc2cnc(N(C)C)nc21 45.7%
Cc1cnc(C(=O)NCCc2ccc(S(=O)(=O)NC(=O)NC3CCCCC3)cc2)cn1
CCc1ccc2c(O)c3c(cc2c1C(=O)OC)C(=O)c1c(O)ccc(O)c1C3=O 16.6%
COC(=O)[C@@H]1CCCN1Cc1ccc2c(c1)CN(Cc1ccccc1)CCO2 13.6%
O=C(Cc1ccccc1)Nc1nc2ccc(Cl)cc2c2nc(-c3ccco3)nn12
CC(C)NC[C@H](O)COc1cccc2[nH]ccc12
COc1ccc2c(c1)OC(C)(C)C(c1ccccc1)C2c1ccc(OCCN2CCCC2)cc1 (configuration not stated) -6.34%
CC(C)CN1CCCC2(CCN(C(=O)c3csnn3)CC2)C1 20.3%
CC(=O)Nc1ccc(SCCN2CC[C@@H](O)CCC2=O)cc1 5.24%
CC(C)NC(=O)N1CCC2(CC1)CCN(C(=O)c1ccncc1)CC2 35.3%
CC(O)(P(=O)(O)O)P(=O)(O)O 24.6%
CCCCCCCCCCCCCC(=O)OC(C)C 1.26%
Cn1cc(CNC2CCN(c3cccc(NC(=O)c4cccnc4)c3)CC2)cn1 14.8%
CN(C)C(=O)c1ccc(-c2cncnc2NCCN2CCOCC2)cc1 20.7%
Brc1cc(Br)c[n+](CCc2ccccc2)c1 -5.28%
COc1ccc(-c2ccc(C(=O)NCC3Cc4cccc(-c5nc(C)cnc5C)c4O3)o2)cc1 (configuration not stated) 12.9%
Cc1cccc(CNc2ncnc3ccc(-c4cccnc4)cc23)c1 -22.7%
COc1cc2[nH]c(=O)[nH]c(=O)c2cc1OC 16.1% [at 75.8 µM]
CC(=O)Oc1ccc(C2(c3ccc(OC(C)=O)cc3)C(=O)Nc3ccccc32)cc1
COc1ccccc1N1CCN(CCCCNC(=O)c2ccc3ccccc3c2)CC1 1.31% [at 75.8 µM]
CCC1NC(=O)c2cc(S(N)(=O)=O)c(Cl)cc2N1 (configuration not stated) -15.2% [at 75.8 µM]
COc1ccc(CN2CCC(=O)N(CCO)CC2)cc1OC 11.3%
Cc1ncc(COP(=O)(O)O)c(C=O)c1O 4.01%
Cc1cc2nccc(/C=C/c3ccc(N(C)C)cc3)c2cc1C 6.22%
COc1ccc(Oc2ncc3nc(-c4cccs4)c(=O)n(Cc4cccc(OC)c4)c3n2)cc1 7.88%
COc1cccc(Nc2ncc3nc(-c4cc(F)cc(F)c4)c(=O)n(C[C@H]4CCCO4)c3n2)c1 21.9%
Cc1nc2cnc(Nc3ccccc3)nc2n(CCC#N)c1=O -0.683%
O=C(Nc1cccc(F)c1)N1CCCC2(CCN(C(=O)c3ccco3)CC2)C1 5.98%
COc1cccc(-c2cc(NCc3ccc(OC)cc3OC)ncn2)c1 -9%
COc1ccc2[nH]cc(CCNc3ncnc4ccc(-c5ccc6c(c5)OCO6)cc34)c2c1 -21.8%
COc1ccc(NC(=O)N2CC3(CCNCC3)C2)cc1 8.08%
COc1ccc(NC(=O)c2ccc(-c3ccc(-c4noc(C)n4)cc3C)cc2)cc1N1CCN(C)CC1 4.44% [at 75.8 µM]
CCCCNc1ccc(C(=O)OCCN(C)C)cc1
CC(C)[N+]1(C)[C@@H]2CC[C@H]1CC(OC(=O)[C@@H](CO)c1ccccc1)C2 (some centres not stated) 16.6%
C[C@H]1[C@H]2CC[C@H]3C4CC=C5C[C@@H](N(C)C)CC[C@]5(C)C4CC[C@]23CN1C (some centres not stated) -2.63%
Cc1cnc(C)c(-c2cccc3c2OC(CNC(=O)CN2C(=O)c4ccccc4C2=O)C3)n1 (configuration not stated) 2.78%
O=C(c1ccccc1-n1cccn1)N1CCOc2c(cc(-c3ncc(C(F)(F)F)cc3Cl)cc2OCC2CCCO2)C1 (configuration not stated) 1.97%
CCCCCOC(=O)Nc1nc(=O)n([C@@H]2O[C@H](C)[C@@H](O)[C@H]2O)cc1F 12.3%
Cc1nonc1CN(C)C(=O)C1CC12CCN(C(=O)/C=C/c1cccc(Cl)c1)CC2 (configuration not stated) 5.93%
C[N+](C)(CCCCCC[N+](C)(C)C1c2ccccc2-c2ccccc21)C1c2ccccc2-c2ccccc21 25.9%
